PMC6406603, “Host-Cell Type Dependent Features of Recombinant Human Aquaporin-4 Orthogonal Arrays of Particles—New Insights for Structural and Functional Studies” (Cells, 2019)

Target: the molecule itself
Assay: native gel or EMSA; 2D BN/SDS-PAGE: 3-9% gradient blue native PAGE then 13% SDS-PAGE, AQP4 immunoblot; whole cells lysed in BN buffer (1% DDM, 12 mM NaCl, 500 mM 6-aminohexanoic acid, 20 mM Bis-Tris pH 7.0)

B1: human M23-AQP4 expressed in Sf9 cells (natural protein)
chain: not shown
notes: also called AQP4-M23; Sf9-M23-AQP4; source: Sf9, baculovirus (Bac-to-Bac), in DDM extract of whole cells or of plasma membrane vesicles
stoichiometry N: 4
